Experimental findings from the supplement of paper PMC7125110 are described below.

± gives the standard error. Variants at the background level are over-represented here. Where only a bound is given, the exact number is not on record here.

The labels stand for the following.
B1: glmS ribozyme (parent)
chain: AUAAAAGCGCCAGAACUACAGAAAUGUAGUUGACGAGGAGGAGGUUUAUCGAAUUUUCGGCGGAUGCCUCCAAA

The variants in the data set derive from B1. Put plainly: self-cleavage kobs at 10000 uM GlcN6P; higher = faster cleavage; RNA array. Conditions: with glucosamine-6-phosphate. The method in brief:
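kobs was derived by fitting per-tile medians to one- or two-exponential decays after normalising signals to baseline and to non-cleaving reference variants. Those signals came from barcoded ribozyme variants transcribed in situ by E. coli RNA polymerase on sequenced MiSeq chips, followed through a hybridised Cy3 probe at 37 °C and imaged over ~14 h. Glucosamine-6-phosphate (40 μM to 10 mM) in HEPES/KCl/Mg(OAc)2 buffer was flowed in. Weighted Michaelis–Menten fits across concentrations then gave kcat and KM.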
Regarding AUAAAAGCGCAAGAACUACAGAAAUGUAGUUGACGAGGAGAAGGUUUAUCGCAUUUUCAGCGGAUGCCGCCAAA [C11A G41A A52C G59A U69G], the “self-cleavage kobs at 10000 uM GlcN6P” value is under 1e-05 s⁻¹.

Consider AUAAAAGCGUCAGAACUACAGAAAUGUAGGUGACGAGACGGAGGUUUAUCGAAUUUUCGGCGGAUGCCCCCAAA [C10U U30G G38A A39C U69C], for which the “self-cleavage kobs at 10000 uM GlcN6P” value is under 1e-05 s⁻¹.

Consider AUAAAAGCGCCAGAACUACAGAAAUGUAAUUGACCAGGAGGAGGUUUAUCGAAUUUUCGGCGGAUGACUCCAAA [G29A G35C C67A], for which the “self-cleavage kobs at 10000 uM GlcN6P” value is under 1e-05 s⁻¹.

In the case of AUAAAAGCGCCAGUAUUACAGAAAUGUAGUUGACGAGGAGGAGGUUUAUCAAAUUUUCGGCGGAUGCCUCCAAA [A14U C16U G51A], the “self-cleavage kobs at 10000 uM GlcN6P” value is under 1e-05 s⁻¹.

In the case of AUAAAAGCGCCAGAACUACAGAAAUGUACUUGUCGAGGAGGAGGUUUAUCGAAUUUUCGGCGGAUGCCUCCAAA [G29C A33U], the “self-cleavage kobs at 10000 uM GlcN6P” value was 2.33e-05 ± 1.2e-05 s⁻¹.

As for AUAAAAGCGCCCGAACUACAGAAAUGUAGUUGACGGGGAGAAGGUUUAUCGAAUUUUCGGCGGAUGCCUCCAAA [A12C A36G G41A], the “self-cleavage kobs at 10000 uM GlcN6P” value was under 1e-05 s⁻¹.

With AUAAAAGCGCUAGAACUACAGAAAUGUAGUUGACGAGGAGGAGGUAUAUCGGAUUUUCGGAGGAUGCCUCCAAA [C11U U46A A52G C61A], the “self-cleavage kobs at 10000 uM GlcN6P” value was under 1e-05 s⁻¹.

For the variant AUAAAAGCGCCAGAAUUACAGAAAUGUAGUUGACUAGGAGGAGGUUUAUCGCAUUUUCGGCGGAUGCCUCCAAA [C16U G35U A52C], the “self-cleavage kobs at 10000 uM GlcN6P” value is under 1e-05 s⁻¹.

Turning to AUAAAAGCGCCAGCACUACAGAAAUGUAGUUGACGAGGUGGAGGUUUAUCGAAUUUUCUGCGGAUGCCUCCAAA [A14C A39U G59U], the “self-cleavage kobs at 10000 uM GlcN6P” value is under 1e-05 s⁻¹.

As for AUAAAAGCGCCACGACUACAGAAAUGUAGGUGGCGAGGAGGACGUUUAUCGAAUUUCCGGCGGAUGCCUCCAAA [G13C A14G U30G A33G G43C U57C], the “self-cleavage kobs at 10000 uM GlcN6P” value was under 1e-05 s⁻¹.

Regarding AUAAAAGCGCAAGAACUACAGAAAUGUAGCUGACGAGGGGGAGGUUUAUCGAAUUUUCGGCGGAUGCCUCCAAA [C11A U30C A39G], the “self-cleavage kobs at 10000 uM GlcN6P” value was 0.000114 ± 2.3e-05 s⁻¹.

In the case of AUAAAAGCGCAAGAACUACAGAAAUGUAGUUGCCGAGGAGGCGGUUUAUGGAAUUUUCGGCGGAUGCCUCCAAA [C11A A33C A42C C50G], the “self-cleavage kobs at 10000 uM GlcN6P” value is under 1e-05 s⁻¹.

Turning to AUAAAAGCGCCAAAACUACAGAAAUGUAGUUGACGAGGAGGAGGUUUAUCGAAUUUUUGGCGGAUGCCUCCAAA [G13A C58U], the “self-cleavage kobs at 10000 uM GlcN6P” value came to 8.94e-05 ± 8.9e-06 s⁻¹.

AUAAAAGCGCCAGAAGUACAGAAAUGUAGUUUACGAGGAGGAGGUUUAUCGAAUUUUCGGCGGAUGCCUUCAAA [C16G G32U C70U]: the “self-cleavage kobs at 10000 uM GlcN6P” value came to 0.000712 ± 0.00013 s⁻¹.

AUAAAAGCGCCAGAACUACAGAAAUGUAAUUGACGAGGAGGAGGUUUAUCGAAUUUUCGGCGGAUUCUUCCAAA [G29A G66U C68U]: the “self-cleavage kobs at 10000 uM GlcN6P” value was 3.63e-05 ± 1.6e-05 s⁻¹.

Consider AUAAAAGCGCCAGAUCUACAGAAAUGUAGUUGACGAAGAGGAGGUUUAUCGAAUUUUCGGCGGAUGCCUGCAAA [A15U G37A C70G], for which the “self-cleavage kobs at 10000 uM GlcN6P” value was under 1e-05 s⁻¹.

For AUAAAAGCGCCGGUACUACAGAAAUGUAGUUUACGAGGAGGAGGUUUAUCGAAUUUUCGACGGAUUCCUCCAAA [A12G A14U G32U G60A G66U], the “self-cleavage kobs at 10000 uM GlcN6P” value is under 1e-05 s⁻¹.

For AUAAAAGCGCCAGAUCUACAGAAAUGUAGUUGACGUGGAGUAGGUUUAUCGAAUUUUCGGCGGAUGCCUCCAAA [A15U A36U G41U], the “self-cleavage kobs at 10000 uM GlcN6P” value is under 1e-05 s⁻¹.

On to AUAAAAGCGCUAGAACUACAGAAAUGUAGUUGACGAGGUGGAGGUUUAUCGAAUUUACGGGGGAUGCCUCCAAA [C11U A39U U57A C61G], for which the “self-cleavage kobs at 10000 uM GlcN6P” value was under 1e-05 s⁻¹.

For the variant AUAAAAGCGCCGGAACUACAGAAAUGUAGUUGACGAGGAGGAGGUUUAUCGAAUUUUCGGUGGAUGGCUCCAAA [A12G C61U C67G], the “self-cleavage kobs at 10000 uM GlcN6P” value is under 1e-05 s⁻¹.

For the variant AUAAAAGCGCCAGAAGUACAGAAAUGUAGUUGACGAGGAGGAGGUUUAUCGUAUUUUCGGCGGAUGCAUCCAAA [C16G A52U C68A], the “self-cleavage kobs at 10000 uM GlcN6P” value is under 1e-05 s⁻¹.

As for AUAAAAGCGUCAGAACUACAGAAAUGUAGUUGACGAGGAAGAGGUUUAUCGAAUUUUCGGCGGCCGCCUCCAAA [C10U G40A A64C U65C], the “self-cleavage kobs at 10000 uM GlcN6P” value is under 1e-05 s⁻¹.

As for AUAAAAGCGCCAGGACUACAGAAAUGUAGUUGACGAGGAGGAGGUUUAACGAAUUUUCGGCGGAUGCCUCCAAA [A14G U49A], the “self-cleavage kobs at 10000 uM GlcN6P” value was 3.67e-05 ± 1.2e-05 s⁻¹.

Regarding AUAAAAGCGCGAGAACUACAGAAAUGUAGUGGACUUGGAGGAGGUUUACCGUAUUUUCGGCGGAUGCCUCCAAA [C11G U31G G35U A36U U49C A52U], the “self-cleavage kobs at 10000 uM GlcN6P” value was under 1e-05 s⁻¹.

AUAAAAGCGCCAUAACUACAGAAAUGUAGUUGACGCGGAGGAGUUUUAUCGAAUUUUCGGCGGAUGCCUCCAAA [G13U A36C G44U]: the “self-cleavage kobs at 10000 uM GlcN6P” value is under 1e-05 s⁻¹.

As to AUAAAAGCGCCUGAACUACAGAAAUGUAGUUGACGAGGAUGAAGUUUAUCGAAACUUCGGCGGAUUCCUCCAAA [A12U G40U G43A U54A U55C G66U], the “self-cleavage kobs at 10000 uM GlcN6P” value is under 1e-05 s⁻¹.

Consider AUAAAAGCGCCAGAACUACAGAAAUUUAGUUGACGAGGAGGAGGUUUAUCGAAUUUGCGGCGGAUGCCUCCAAA [G26U U57G], for which the “self-cleavage kobs at 10000 uM GlcN6P” value was determined as 5.83e-05 ± 2e-05 s⁻¹.

AUAAAAGCGCCAGAAAUACAGAAAUGUAGUUGACGUGGAGGAGUUUUAUCGAAUUUUCGGCGGAUGCCUCCAAA [C16A A36U G44U]: the “self-cleavage kobs at 10000 uM GlcN6P” value is under 1e-05 s⁻¹.

For the variant AUAAAAGCGCCAGAAAUACAGAAAUGUAGUUGAGGAGGAGGAGGUUUAUCGAAUUUUCAGCGGAUGCCUCCAAA [C16A C34G G59A], the “self-cleavage kobs at 10000 uM GlcN6P” value was under 1e-05 s⁻¹.

Turning to AUAAAAGCGCCAGCACUACAGAAAUGUAGUUGACGAGGAGGAGGUUUAUCGAAUUUUCGGCGGAUGCAUACAAA [A14C C68A C70A], the “self-cleavage kobs at 10000 uM GlcN6P” value was under 1e-05 s⁻¹.

AUAAAAGCGCUAGAACUACAGAAAUGUAGUUGACGAGGUGGAGGUUUAUCGAAGUUUCGGCGGAUGCCUCCAAA [C11U A39U U54G]: the “self-cleavage kobs at 10000 uM GlcN6P” value worked out at 0.000492 ± 0.00011 s⁻¹.

For the variant AUAAAAGCGCCAGCACUACAGAAAUGUAGUUGACGAGGAUGAGGUUUAUCGAAUUUUCGGCGGCUUCCUCCAAA [A14C G40U A64C G66U], the “self-cleavage kobs at 10000 uM GlcN6P” value was under 1e-05 s⁻¹.

Turning to AUAAAAGCGCCGGAACUACAGAAAUGUAGUUGACGAGGAGGGGGUUUAUCGGAUUUUCGGCGGAUGCCUCCAAA [A12G A42G A52G], the “self-cleavage kobs at 10000 uM GlcN6P” value stood at 2.4e-05 ± 1.2e-05 s⁻¹.

As to AUAAAAGCGCCGGAACUACAGAAAUGUAGUUGACGAGGAGGAGGAUUAUCGAAUUUUCGGCGGAUGCCUCUAAA [A12G U45A C71U], the “self-cleavage kobs at 10000 uM GlcN6P” value came out at 0.00191 ± 0.0004 s⁻¹.

As to AUAAAAGCGCGAGAACUACAGAAAUGUAGUUGACGAGGAGGAGGUUUAUUGAAUUUUCCGCGGAUGCCUCCAAA [C11G C50U G59C], the “self-cleavage kobs at 10000 uM GlcN6P” value was under 1e-05 s⁻¹.

Regarding AUAAAAGCGCCAGAAGUACAGAAAUGUAGUUGACGAGGAGGAGGUUUAUCGAAUUUUCGGAGGAGGCCUCCAAA [C16G C61A U65G], the “self-cleavage kobs at 10000 uM GlcN6P” value was under 1e-05 s⁻¹.

In the case of AUAAAAGCGUCAGAAGUACAGAAAUGUAGUUGACGAGGAAGAGGUUUAUCAAGUUUUCGGCGGAUGCCUCCAAA [C10U C16G G40A G51A A53G], the “self-cleavage kobs at 10000 uM GlcN6P” value was under 1e-05 s⁻¹.
